In all, about 33,000 sequences were measured (“E-score (-0.5 to 0.5)”: median about -0.041, highest 2% from about 0.37 on). The list shows a part of the results.

The target in this assay is T1, Ecm22 (UniProt Q05958).
T1 sequence: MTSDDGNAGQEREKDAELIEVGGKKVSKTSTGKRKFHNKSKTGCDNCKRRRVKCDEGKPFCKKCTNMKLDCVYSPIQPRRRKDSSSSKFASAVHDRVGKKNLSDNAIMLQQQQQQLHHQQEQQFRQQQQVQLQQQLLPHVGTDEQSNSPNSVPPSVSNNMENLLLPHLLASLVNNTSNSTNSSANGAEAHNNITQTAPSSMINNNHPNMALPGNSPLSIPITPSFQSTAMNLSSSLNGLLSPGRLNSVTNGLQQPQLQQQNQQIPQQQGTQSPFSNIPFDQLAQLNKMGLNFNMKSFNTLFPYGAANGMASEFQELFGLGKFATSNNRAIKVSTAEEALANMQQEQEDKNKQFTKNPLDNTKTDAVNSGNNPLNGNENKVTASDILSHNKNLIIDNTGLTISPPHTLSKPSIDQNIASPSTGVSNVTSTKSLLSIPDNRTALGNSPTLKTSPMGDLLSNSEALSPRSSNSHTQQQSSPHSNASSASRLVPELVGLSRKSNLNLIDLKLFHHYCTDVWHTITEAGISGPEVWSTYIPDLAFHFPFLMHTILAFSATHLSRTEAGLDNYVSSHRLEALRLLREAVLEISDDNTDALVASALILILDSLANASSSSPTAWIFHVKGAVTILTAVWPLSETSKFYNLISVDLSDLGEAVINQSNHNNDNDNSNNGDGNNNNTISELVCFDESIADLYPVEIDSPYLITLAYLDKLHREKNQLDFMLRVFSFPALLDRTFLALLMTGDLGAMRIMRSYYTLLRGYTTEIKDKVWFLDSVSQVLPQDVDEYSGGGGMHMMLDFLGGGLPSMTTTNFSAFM
The assay is described as follows: PBM E-score (8-mer binding enrichment) (E-score (-0.5 to 0.5)); higher = stronger / more preferred TF binding; most listed sequences are background and not binding sites. The note with it: protein concentration: 200 nM; construct: GST-full length. An outline of the steps: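 Yeast transcription factors, full-length or as DNA-binding domains, were expressed with a GST tag using PURExpress in vitro transcription/translation. At about 100-200 nM they were applied to universal all-10-mer Agilent arrays, double-stranded by primer extension on fresh or once-stripped slides. Fluorescent anti-GST detected bound protein, and masliner normalised the scans. E-scores for ungapped eight-base words, pooled with reverse complements, came from the Universal PBM Analysis Suite.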
Take ACCCGGCA: the “PBM E-score” value was -0.0161.

GACGCCGC: the “PBM E-score” value came out at 0.00871.

With ACAGTACG, the “PBM E-score” value was found to be 0.326.

As to GATACGAA, the “PBM E-score” value stood at 0.445.

Turning to ATCACAAA, the “PBM E-score” value is -0.18.

On to GCCAGGGA, for which the “PBM E-score” value is -0.0729.

On to CACAGCCG, for which the “PBM E-score” value turned out to be 0.06.

With CTCAGAAC, the “PBM E-score” value was -0.0802.

As to AGTCCTTA, the “PBM E-score” value is -0.242.

With CCGTTAAA, the “PBM E-score” value was 0.278.

For the sequence AACATCGA, the “PBM E-score” value is -0.0105.

In the case of ATTGCTAG, the “PBM E-score” value is -0.191.

Consider ACAGGCTC, for which the “PBM E-score” value is -0.0921.

With GGAGCTCA, the “PBM E-score” value is -0.143.

For CGGTTCAA, the “PBM E-score” value turned out to be 0.00076.

GGGGTAAC: the “PBM E-score” value is -0.0259.

In the case of AGCGTGGA, the “PBM E-score” value was -0.0519.

In the case of CGACAGAA, the “PBM E-score” value was determined as 0.19.

Take GAGTCTAA: the “PBM E-score” value was -0.115.

On to CGGCTACG, for which the “PBM E-score” value came out at 0.283.

ACAAAGGG: the “PBM E-score” value was -0.338.

Take CATCCGAG: the “PBM E-score” value amounted to 0.163.

With GGCACACA, the “PBM E-score” value was -0.122.

As to CGTGTTAA, the “PBM E-score” value is -0.0172.

Take GCTTTCAA: the “PBM E-score” value was -0.0189.

In the case of CGTGCCAC, the “PBM E-score” value was -0.129.

AGAAGTCA: the “PBM E-score” value is -0.222.

As for AGGCGCGC, the “PBM E-score” value was 0.0957.

With CTCCTGCA, the “PBM E-score” value is -0.0892.

Consider ATACTGTC, for which the “PBM E-score” value came out at 0.0723.

As for AGAGAACG, the “PBM E-score” value was 0.288.

On to ATGTTTAA, for which the “PBM E-score” value was -0.0568.

Take CATCAATA: the “PBM E-score” value was found to be 0.101.

CGAAACCA: the “PBM E-score” value turned out to be 0.28.

On to ACCGATAT, for which the “PBM E-score” value is 0.138.

In the case of AACATTAC, the “PBM E-score” value is -0.153.

For CAATAGGA, the “PBM E-score” value was -0.143.

Turning to CGAACCCG, the “PBM E-score” value was found to be 0.214.

For ACAAACGC, the “PBM E-score” value turned out to be 0.174.

With ACGCCGAA, the “PBM E-score” value is 0.132.

As to AGATGGGC, the “PBM E-score” value was -0.226.

On to TAGTAATA, for which the “PBM E-score” value was -0.00327.

On to ACTAGGGA, for which the “PBM E-score” value is -0.175.

For ACTACCAT, the “PBM E-score” value is 0.0241.

As to AAGCTTAT, the “PBM E-score” value is -0.0325.

Turning to AACAACAC, the “PBM E-score” value turned out to be 0.0503.

Take CCATTCGG: the “PBM E-score” value was -0.0355.

As for AAGAGACT, the “PBM E-score” value was -0.202.

With AGATATCT, the “PBM E-score” value is -0.176.

Consider CTCGGTAA, for which the “PBM E-score” value is 0.277.

Consider ACCCGTAT, for which the “PBM E-score” value is 0.391.

Turning to GCGTCTAC, the “PBM E-score” value was -0.0526.

Take AGATTCTA: the “PBM E-score” value came to 0.0997.

Take CACGAATA: the “PBM E-score” value stood at 0.117.

On to CAAAGTAC, for which the “PBM E-score” value was 0.196.

Take AATTAAAC: the “PBM E-score” value was found to be 0.219.

Consider AGGCTTAG, for which the “PBM E-score” value was -0.158.

Regarding GCAAGGAA, the “PBM E-score” value was determined as 0.076.

As to CAGGTCGG, the “PBM E-score” value was -0.101.

GCAGGAGA: the “PBM E-score” value was -0.041.

On to ACCACTTA, for which the “PBM E-score” value was -0.0146.

For the sequence CTATCCGC, the “PBM E-score” value was 0.24.

With CTTATTGA, the “PBM E-score” value is -0.155.

On to GACCCAGC, for which the “PBM E-score” value was -0.113.

Turning to ATACTACG, the “PBM E-score” value worked out at 0.197.

As to CAGCCATC, the “PBM E-score” value turned out to be 0.0195.

For AGCGGGCG, the “PBM E-score” value was determined as 0.00567.

As for ATCTAGGA, the “PBM E-score” value is -0.11.

As for ATGATAAG, the “PBM E-score” value is -0.0663.

Turning to AATAAGGT, the “PBM E-score” value was -0.00164.

As to ACAAGCGT, the “PBM E-score” value is -0.0149.

For the sequence ATCTTTAG, the “PBM E-score” value was -0.174.

Consider CCGATGAC, for which the “PBM E-score” value is -0.0316.

As to AGTCGCGC, the “PBM E-score” value amounted to 0.0329.

For CCACTCGG, the “PBM E-score” value stood at 0.155.

Consider TATACGCA, for which the “PBM E-score” value was 0.415.

As for ACAGCGAT, the “PBM E-score” value was -0.0162.

For the sequence CGATGACC, the “PBM E-score” value worked out at 0.169.

CGTCCTGC: the “PBM E-score” value is -0.168.

Consider CGGCTCCA, for which the “PBM E-score” value was -0.132.

With ACCAATTC, the “PBM E-score” value was -0.0291.

For the sequence CAAACAGA, the “PBM E-score” value is -0.00197.

For ATTCCGCC, the “PBM E-score” value is -0.0947.

Regarding CCAGTGCG, the “PBM E-score” value is 0.00947.

CATGTTGC: the “PBM E-score” value was -0.15.

With GCATTCCA, the “PBM E-score” value was -0.137.

These data come from the supplement of paper PMC3334620.
